Here are results for 39 variants from the RNAGym collection of RNA variant scans (doi:10.7554/elife.90254).

The source gives no read counts; variants with many changes may rest on few reads.

The labels stand for the following.
B1: LINE1-full (parent)
chain: UACGUAGGUGGUUUUCCCCUGAUAGUGCUAAGGGGGCCUGGAAGUUUGGACUGGGCAGAGCUCAACACAGCGUGGCAAAGUGGCUGUGGCUAGACUGCCUCUCUGGAUUCCUCGUCACUCAGCAGGGCAUCUCUGAGAGAAAUGCC

This data set covers variants of B1. Kind of data set: self-cleavage, relative activity (ratio to wild type); higher = more cleavage; in vitro, sequencing; the parent is a self-cleaving ribozyme.
In the case of UACGUAGGUGGUUUUCCCCUGAUAGUGCUAAGGGGGCCUGGGAGUUUGGGCUGGGCAGAGCUCAACACAGCGUGGCAAAGUGGCUGUGGCUAGACUGCCUCUCUGGAUUCCUCGUCACUCAGCAGGGCAUCUCCGAGAGAAAUGCC [A42G A50G U134C], the self-cleavage is 0.95.
As for UACGUAGGUGGUUUUCCCCUGAUAGUGCUAAGGGGGCCUGAAAGUUUGGACUGGGCAGAGCUCAACACAGUGCGGCAAGGUGGCUGUGGCUAGACUGCCUCUCUGGAUUCCUCGUCACUCAGCAGGGCAUCUCUGAGACGAGUGCC [G41A C71U U73C A79G G139C A140G A142G], the figure is 0.89; as for UACGUAGGUGGUUUUCCCCUGAUAGUGCUAAGGGGGCCUGGGAGUUUGGACUGGGCGGAGCUCAACACAGCGUGGCAAAGUGGCUGUGGCUAGACUGCCUCUCUGGAUUCCACGUCACUCAGCAGGGCAUCUCUGAGAGUAAUGCC [A42G A57G U112A A140U], 1.5.
In the case of UACGUAGGUGGUUUUCCCCUGAUAGUGCUAAGGGGGCCUGGGAGUUUGGACUGGGCAGAGCUCCACGCAGCGUGGCAAAGUGGCUGUGGCUAGACUGCCUCUCUGGAUUCCUCGUCACUCAGCAGGGCAUCUCCGAGAGAGAUGCC [A42G A64C A67G U134C A141G], the self-cleavage turned out to be 0.
Then UACGUAGGUGGUUUUCCCCUGAUAGUGCUAAGGGGGCCUGGGAGUUUGGACUGGGCAGGGCCCUACACAGCGUGGCAAAGUGGCUGUGGCUAGACUGCCUCUCUGGACUCCUCGUCACUCAGCAGGGCAUCUCUGUGAGAAAAGCC [A42G A59G U62C A64U U108C A136U U143A], with 0.
Turning to UACGUAGGUGGUUUUCCCCUGAUAGUGCUAAGGGGGCCUGGGAGUUUGGACUGGGCAGAGCUCCACACAGCGUGGCAAAGUGGCUGUGGCUGGACUGCCUCUCUGGAUUCCUCGUCACUCAGCAGGGCAUCUCUGAGAGAAAUGCC [A42G A64C A92G], the self-cleavage came to 0.
Then UACGUAGGUGGUUUUCCCCUGAUAGUGCUAAGGGGGCCUGGGAGUUUGGACUGGGCUGAGCUCAACACAGCGUGGCAGAGUGGCUGUGGCUAGACUGCCUCUCUGGAUUCCUCGUCACUCAGCAGGGCUUCUCUGAGAGAAAUGCC [A42G A57U A78G A129U], with 0.12; and UACGUAGGUGGUUUUCCCCUGAUAGUGCUAAGGGGGCCUGUAAGUUUGGACUGGGCAGAGUUCAACACAGCGUGGCAAAGUGGCUGUGGCUAGACUGCCUCUCUGGAUUCCUCGUCUCUCAGCGGGGCAUCUCUGGGAGAAAUGGC [G41U C61U A117U A124G A136G C145G], with 0.
As for UACGUAGGUGGUUUUCCCCUGAUAGUGCUAAGGGGGCCUGCAAGUUUGGACUGGGCAGAGCUCUACACAGCGUGGCAAAGUGGCUGUGGCUAGACCGCCUCUCUGGAUUCCUCGUCACUCAGCAGGGCAUCUCUGAGAGAAAUGCC [G41C A64U U96C], the figure is 0.04.
As for UACGUAGGUGGUUUUCCCCUGAUAGUGCUAAGGGGGCCUGGGAGUUUGGACUGGGCUGAGCUCAACACAGCGUGGCAAAGUGGCUGUGGCUAGUCUGCCUCUCUGGAUUCCUCGUCACUCAGCAGGGCAUCUCUGAGAGGGAUGCC [A42G A57U A94U A140G A141G], the figure is 0.02; as for UACGUAGGUGGUUUUCCCCUGAUAGUGCUAAGGGGGCCUGUAAGCUUGGACUGGGCAGAGCUCUACACAGCGUGGCAAAGUGACUGUGGCUAGACUGCCUCUCUGGAUUCCUCGUCACUCAGCAGGGCACCUCUGAGAGAAAUGCC [G41U U45C A64U G83A U130C], 0.1; as for UACGUAGGUGGUUUUCCCCUGAUAGUGCUAAGGGGGCCUGCAAGUUUGGACUGGGCAGAGCUCAACACAGCGUGGCAAAGUGGCUGUGGCUAGACUGCCUCUCUGGAUUCCCCGUCACUCAGCAGGGCAUCUCUGGGAGAAAUGCC [G41C U112C A136G], 2.26.
UACGUAGGUGGUUUUCCCCUGAUAGUGCUAAGGGGGCCUGGGAGUUUGGACUGGGCAGGGCUCAACACAGCGUGGCAAAGUGGCUGUGGCUAGACUGCCUCUCUGGAUUCCUCGUCACUCAGCAGGGCAUCUCUGAGAGAAGUGCC [A42G A59G A142G]: the self-cleavage stood at 0.11.
Then UACGUAGGUGGUUUUCCCCUGAUAGUGCUAAGGGGGCCUGUAAGUUUGGACUGGGCAGAGCUCAACACAGCGUGGCAAAGUAGCUGUGGCUAGACUGCCUCUCUGGAUUCCUCGUCACUCAGCGGGGCAUCUCUGAGAGAAAUGCC [G41U G82A A124G], with 0.95.
As for UACGUAGGUGGUUUUCCCCUGAUAGUGCUAAGGGGGCCUGGCAGUUUGGACUGGGCAGAGCUCAACACAGCGUGGCAAAGUGGCUGAGGCUAGACUGCCUCUUUGGAUUCCCCGUCACUCAGCAGGGCAUCUCUGAGAGAAAUGCC [A42C U87A C103U U112C], the figure is 0.04.
Then UACGUAGGUGGUUUUCCCCUGAUAGUGCUAAGGGGGCCUGUAAGUUUGGACUGGGCAGAGCUCUACACAGCGUGGCAAAGUGGCUGUGGCUAGACUGCCUCUCUGGAUUCCUCGUCACUCAGCAGGGCAUCUCUGAGAGAAAUGCU [G41U A64U C146U], with 0.38; and UACGUAGGUGGUUUUCCCCUGAUAGUGCUAAGGGGGCCUGGCAGUUUGGACUGGGCAGAGCCCAACACAGCGUGGCAAAGUGGCUGUGGCUAGACUGCCUCUCUGGAUUCCUCGUCACUCAGCAGGGCACCUCUGAGAGAAAUGCC [A42C U62C U130C], with 0.
For the variant UACGUAGGUGGUUUUCCCCUGAUAGUGCUAAGGGGGCCUGGGAGUUUGGACUGGGCGGAGCUCAACACAGCGUGGCAAAGUGGCUGUGGCUAGACUGCCUCUCUGGAUUCCUCGUCACUCAGCAGGGCAACUCUGAGAGAAAUGCC [A42G A57G U130A], the self-cleavage was 1.29.
Regarding UACGUAGGUGGUUUUCCCCUGAUAGUGCUAAGGGGGCCUGAAAGUUUGGACAGGGCAGAGCUCAACACAGCGUGGCAAAGUGGCUGAGGCUAGACUGCCUCUCUGGAUUCCUCGUCACUCAGCAGGGCAUCUCUGAGAGAAAUGCC [G41A U52A U87A], the self-cleavage was 0.07.
On to UACGUAGGUGGUUUUCCCCUGAUAGUGCUAAGGGGGCCUGGGAGUUUGGACUGGGCGGAGAUCAACACAGCGUGGCAAAGUGGCUGUGGCUAGACUGCCUCUCUGGAUUCCUCGACACUCAGCAGGGCAUCUCUGAGAGAAAUGCC [A42G A57G C61A U115A], for which the self-cleavage worked out at 0.07.
Regarding UACGUAGGUGGUUUUCCCCUGAUAGUGCUAAGGGGGCCUGGGAGUUUGGACUGGGCAGUGCUCAACACAGCGUGGCAAAGUGGCUGUGGCUAGACUGCCUCUCUGGAUUCCUCGUCACUCAGCAGGGCAUCUCCGAGAGAAAUGCC [A42G A59U U134C], the self-cleavage came to 0.7.
Then UACGUAGGUGGUUUUCCCCUGAUAGUGCUAAGGGGGCCUGGGAGUUUGGACUGGGCUGAGCUCAGCACAGCGUGGCAAAGUGGCUGUGGCUAGACUGCCUCUCUGGAUUCCUCGUCACUCAGCAGGGCAACUCUGAGAGAAAUGCC [A42G A57U A65G U130A], with 0; and UACGUAGGUGGUUUUCCCCUGAUAGUGCUAAGGGGGCCUGGGAGUUUGGACUGGGCAGAGCUCGACACAGCGUGGCAAAGUGGCUGUGGCUAGACUGCCUCUCUGGAUUCCUCGUCACUCAGCAGGGCAUCUCUGAGUGAAAUGCC [A42G A64G A138U], with 0.42.
As for UACGUAGGUGGUUUUCCCCUGAUAGUGCUAAGGGGGCCUGUAAGUCUGGGCUGGGCAGAGCUCAACACAGCGUGGCAAAGUGGCUGUGGCUAGACUGCCUCUCUGGAUUCCUCGUCACUCAGCAGGGCAUCUCUGAGAGAAAUGCC [G41U U46C A50G], the self-cleavage stood at 1.44.
As for UACGUAGGUGGUUUUCCCCUGAUAGUGCUAAGGGGGCCUGAAAGUUUGGACUGGGCAGAGCCCAACACAGCGUGGCAAAGUGGCUGUGGCUAGACUGCCUCUCUGGAUUCCCCGUCACUCAGCAGGGCAUCUCUGAGAGAAAUGCC [G41A U62C U112C], the figure is 0.06; as for UACGUAGGUGGUUUUCCCCUGAUAGUGCUAAGGGGGCCUGAAAGUUUGGACUGGGCAGAGCUCAACACAGCGUGGCAAAGUGGCUGUGGCUAGACUGCCUCUCUGGAUUCCUCGACACUCAGCAGGUCAUCUCUGAGAGAAAUGCC [G41A U115A G127U], 1.23; as for UACGUAGGUGGUUUUCCCCUGAUAGUGCUAAGGGGGCCUGGGUGUUUGGACUGGGCAGGGCUCAACACAGCGUGGCAAAGUGGCUGUGGCUAGACUGCCUCUCUGGAUUCCUCGUCACUCAGCAGGGCAUCUCUGAGAGAAAUGCC [A42G A43U A59G], 0.28.
UACGUAGGUGGUUUUCCCCUGAUAGUGCUAAGGGGGCCUGGGAGUUUGGACUGGGCGGAGCUCAACACAGCGUGGCAUAGUGGCUGUGGUUAGACUGCCUCUCUGGAUUCCUCGUCACUCAGCAGGGCAUCUCUGAGGGAAAUGCC [A42G A57G A78U C90U A138G]: the self-cleavage amounted to 0.09.
As for UACGUAGGUGGUUUUCCCCUGAUAGUGCUAAGGGGGCCUGGGAGUUUGGACUGGGCAGGGCUCAACACAGCGUGGCAAAGUGGCUGUGGCUAGACUGCCUCCCUGGAUUCCUCGUCACUCGGCAGGGCAUCUCUGAGAGAAAUGCC [A42G A59G U102C A121G], the figure is 0.
Consider UACGUAGGUGGUUUUCCCCUGAUAGUGCUAAGGGGGCCUGGGAGUUUGGGCUGGGCAGAGCACAACACAGCGUGGCAAAGUGGCUGUGGCUAGACUGCCUCUCUGGAUUCCUCGUCACUCAGCAGGGCAUCUCUGGGAGAAAUGCC [A42G A50G U62A A136G], for which the self-cleavage came out at 0.15.
Then UACGUAGGUGGUUUUCCCCUGAUAGUGCUAAGGGGGCCUGUAAGUUUGGACUGGGCAGAGCUCAACACAGCGUGGCAAAGUGGCCGUGGCUAGACUGCCUCUCUGGAUUCCUUGUCACUCAGCAGGGCAUCUCUGAGAGAAAUGCC [G41U U85C C113U], with 0.11.
As for UACGUAGGUGGUUUUCCCCUGAUAGUGCUAAGGGGGCCUGAAAGUUUGGACUGGGCAGAGCUCAACACAGCGUGGCAAAGUGGCUGUGGCUAGACUGCCUCUCUGGAUUCCUCGUCACUCAGUAGGGCAUCUCCGAGAGAAAUGCC [G41A C123U U134C], the figure is 1.34; as for UACGUAGGUGGUUUUCCCCUGAUAGUGCUAAGGGGGCCUGGGGGAUUGGACUGGGCAGAGCUCAACACAGCGUGGCAAAGUGGCUGUGGCUAGACUGCCCCUCUGGAUUCCUCGUCACUCAGCAGGGCAUCUCUGAGAGAAAUGCC [A42G A43G U45A U100C], 1.24; as for UACGUAGGUGGUUUUCCCCUGAUAGUGCUAAGGGGGCCUGGGGGUUUGGACUGGGCAGAGCUCAACACAGCGUGGCAAAGUGGCUGUAGCUAGACUGCCUCUCUGGAUUCCUCGUCACUCAGCAGGGCGUCUCUGAGAGAACUGCC [A42G A43G G88A A129G A142C], 0.12.
Then UACGUAGGUGGUUUUCCCCUGAUAGUGCUAAGGGGGCCUGGCAGUUUGGACUGGGCAGAGCUCAACACAGCGUGGCAAAGCGGCUGUGGCUAGACUGCCUCUCUGGAUUCCUCGACACUCAGCAGGGCAUCUCUGAGAGAAAUGCC [A42C U81C U115A], with 0.71.
As for UACGUAGGUGGUUUUCCCCUGAUAGUGCUAAGGGGGCCUGUAAGGUUGGACUGGGCAGAGCUCAACACAGCGUGGCAAAGUGGCAGUGGCUAGACUGCCUCUCUGGAUUCCUCGUCACUCAGCAGGGCAUCUCUGUGAGAAAUGCC [G41U U45G U85A A136U], the self-cleavage turned out to be 0.03.
Then UACGUAGGUGGUUUUCCCCUGAUAGUGCUAAGGGGGCCUGGCAGUUUGGACUGGGCAGAGCUCAACACAGCGAGGCAAAGAGGCUGUGGCUAGACUGCCUCUCUGGAUUCCUCGUCACUCAGCCGGGCAUCUCUGAGAGAAAUGCC [A42C U73A U81A A124C], with 1.47; and UACGUAGGUGGUUUUCCCCUGAUAGUGCUAAGGGGGCCUGUAAGUUUGGACUGGGCAGAGCUCAACACAGCGUGGCAAAGUGGCUGUGGCUAGGCUGCCUCUCUGGAUUCCUCGUCACUCAGCAGGGCAUCUCUGAGAGGAAUGCC [G41U A94G A140G], with 0.04; and UACGUAGGUGGUUUUCCCCUGAUAGUGCUAAGGGGGCCUGUAGGUUUGGACUGGGCAGAGCCCAACACAGCGUGGCAAAGUGGCUGUGGCUAGACUGCCUCUCUGGAUUCCUCGUCACUCAGCAGGGCAUCUCUGAGAGAAAUGCC [G41U A43G U62C], with 0.06.
